From patent US10954269B2, “Anti-inflammatory tripeptides” (Dr. August Wolff Gmbh & Co. KG Arzneimittel, priority 2013, dated 2021)
Not every detail of the peptide structures is certain; ends, links or a residue may be inferred. Some compounds share one wording; it may come from a single statement. Where a SMILES comes first, the peptide text is derived from it. [ ]: non-standard residue; d: D form. Tle = CC(C)(C)[C@H](N)C(=O)O

Experiments:
primary human T-cells = test: Cytokine secretion on protein level in activated primary human T-cells (13-plex FACS / Luminex, supernatant); format: cell-based; settings: for IL-1 cytokine concentration / IL-2 cytokine concentration / IL-4 cytokine concentration / IL-5 cytokine concentration / IL-6 cytokine concentration / IL-9 cytokine concentration / IL-10 cytokine concentration / IL-12p70 cytokine concentration / IL-13 cytokine concentration / IL-17 cytokine concentration / IL-22 cytokine concentration / TNF-α cytokine concentration / IFN-γ cytokine concentration: 10^−9M
Protocol: (§1) Primary T-cells were isolated from peripheral blood from healthy volunteers and from secondary lymphatic organs from naïve C57BL/6 mice, respectively. The cells were stimulated with phorbol-12-myristate-13-acetate (PMA)/Ionomycin and interferon-gamma (IFN-γ), respectively, for 48 h to activate the cells. The activated cells release pro-inflammatory cytokines. In parallel a human (HaCaT) keratinocyte cell line was activated with PMA/Ionomycin and IFN-γ, respectively, too. […] At the same time release of anti-inflammatory IL-10 was inhibited. Two days after addition of PMA/Ionomycin and IFN-γ, respectively, the induction of IL-1 secretion was determined in the supernatant for proving that the cells are activated. […] The anti-inflammatory properties of the tripeptides were determined 48 h and 72 h following stimulation. A 13-plex-system based FACS analysis was used for showing the reduced secretion of pro-inflammatory cytokines in the supernatant. Data for IL-1, IL-2, IL-6, IL-12p70 IL-17, IFN-γ and TNF-α are considered to be most relevant. Thus, analysis of the anti-inflammatory properties of the tripeptides is preferably based on the results obtained for these analytes. […] Using this method the gene expression of pro-inflammatory markers like IL-6, IL-17, IFN-γ and TNF-α was determined.
(§2) In a third experiment murine and human T cells and HaCaT cells were stimulated with PMA/Ionomycin and treated with Examples 14, 15, 16 and 17 at 10^−7 M, 10^−9 M and 10^−11 M. Cytokine concentrations (IFN-γ, IL-17 and IL-10 for T cells and IFN-γ for HaCat) were assessed in the supernatants using the Luminex technology. Expression of genes coding for Il-1β, IL-6 and TNF-α was determined. […] Moreover, concentrations of pro-inflammatory cytokines IFN-γ and IL-17 was reduced in the supernatants whereas the concentration of anti-inflammatory cytokine IL-10 was increased. […]
(§3) For the biological assay two human cell lines of different origin were chosen to allow for translation of the results obtained. A HaCaT cell is a cell type belonging to an immortal human keratinocyte line used in scientific research. Its use in research allows for the characterization of human keratinocyte using a model that is reproducible and representing a human epithelial cell line. In contrast human T-lymphocytes (T-cells) are a type of lymphocyte (itself a type of white blood cell) that play a central role in cell-mediated inflammation/immunity.

[1] = system: human keratinocyte cell line (HaCaT); test: Cytokine secretion on protein level in activated human keratinocyte cell line HaCaT (13-plex FACS / Luminex, supernatant); format: cell-based; settings: 10^−9M
Protocol: as §1, §2, §3

[2] = primary human T-cells stimulated with IFN-γ
[3] = primary human T-cells stimulated with PBS
[4] = primary human T-cells stimulated with PMA/Ionomycin
[5] = HaCaT stimulated with IFN-γ, excluded from the final assessment

CC(C)(C)[C@H](NC(=O)[C@@H]1CCCN1C(=O)[C@@H](N)CCCCN)C(=O)O [Example 9, H-(L)-Lys-(L)-Pro-(L)-t-butyl-Gly-OH] (H-Lys-Pro-[Tle]-OH)
secretion / expression of pro-inflammatory cytokines (supernatant) (primary human T-cells; activated primary human T-cells): stronger anti-inflammatory effects | IL-1 cytokine concentration (primary human T-cells; [2]): 363.19 pg/mL | IL-2 cytokine concentration (primary human T-cells; [2]): 164.47 pg/mL | IL-4 cytokine concentration (primary human T-cells; [2]): 141.97 pg/mL | IL-5 cytokine concentration (primary human T-cells; [2]): 52.14 pg/mL | IL-6 cytokine concentration (primary human T-cells; [2]): 90.63 pg/mL | IL-9 cytokine concentration (primary human T-cells; [2]): 97.68 pg/mL | IL-10 cytokine concentration (primary human T-cells; [2]): 154.92 pg/mL | IL-12p70 cytokine concentration (primary human T-cells; [2]): 704.53 pg/mL | IL-13 cytokine concentration (primary human T-cells; [2]): 79.89 pg/mL | IL-17 cytokine concentration (primary human T-cells; [2]): 184.81 pg/mL | IL-22 cytokine concentration (primary human T-cells; [2]): 0 pg/mL | TNF-α cytokine concentration (primary human T-cells; [2]): 178.78 pg/mL | IFN-γ cytokine concentration (primary human T-cells; [3]): 1111.58 pg/mL | IL-1 cytokine concentration (primary human T-cells; [3]): 398.01 pg/mL | IL-2 cytokine concentration (primary human T-cells; [3]): 298.65 pg/mL | IL-4 cytokine concentration (primary human T-cells; [3]): 151.99 pg/mL | IL-5 cytokine concentration (primary human T-cells; [3]): 68.35 pg/mL | IL-6 cytokine concentration (primary human T-cells; [3]): 98.42 pg/mL | IL-9 cytokine concentration (primary human T-cells; [3]): 93.72 pg/mL | IL-10 cytokine concentration (primary human T-cells; [3]): 210.15 pg/mL | IL-12p70 cytokine concentration (primary human T-cells; [3]): 210.63 pg/mL | IL-13 cytokine concentration (primary human T-cells; [3]): 91.02 pg/mL | IL-17 cytokine concentration (primary human T-cells; [3]): 253.52 pg/mL | IL-22 cytokine concentration (primary human T-cells; [3]): 2258.05 pg/mL | TNF-α cytokine concentration (primary human T-cells; [3]): 258.09 pg/mL | IFN-γ cytokine concentration (primary human T-cells; [4]): 3589.9 pg/mL | IL-1 cytokine concentration (primary human T-cells; [4]): 1331.79 pg/mL | IL-2 cytokine concentration (primary human T-cells; [4]): 12000 pg/mL | IL-4 cytokine concentration (primary human T-cells; [4]): 236.59 pg/mL | IL-5 cytokine concentration (primary human T-cells; [4]): 114.01 pg/mL | IL-6 cytokine concentration (primary human T-cells; [4]): 1759.4 pg/mL | IL-9 cytokine concentration (primary human T-cells; [4]): 157.98 pg/mL | IL-10 cytokine concentration (primary human T-cells; [4]): 4514.53 pg/mL | IL-12p70 cytokine concentration (primary human T-cells; [4]): 822.84 pg/mL | IL-13 cytokine concentration (primary human T-cells; [4]): 827 pg/mL | IL-17 cytokine concentration (primary human T-cells; [4]): 2531.57 pg/mL | IL-22 cytokine concentration (primary human T-cells; [4]): 24198 pg/mL | TNF-α cytokine concentration (primary human T-cells; [4]): 3600 pg/mL | IL-1 cytokine concentration ([1]; HaCaT stimulated with IFN-γ): 245.47 pg/mL | IL-2 cytokine concentration ([1]; HaCaT stimulated with IFN-γ): 108.74 pg/mL | IL-4 cytokine concentration ([1]; HaCaT stimulated with IFN-γ): 79.04 pg/mL | IL-5 cytokine concentration ([1]; HaCaT stimulated with IFN-γ): 121.18 pg/mL | IL-6 cytokine concentration ([1]; HaCaT stimulated with IFN-γ): 630.85 pg/mL | IL-9 cytokine concentration ([1]; HaCaT stimulated with IFN-γ): 108.39 pg/mL | IL-10 cytokine concentration ([1]; HaCaT stimulated with IFN-γ): 156.25 pg/mL | IL-13 cytokine concentration ([1]; HaCaT stimulated with IFN-γ): 54.12 pg/mL | IL-17 cytokine concentration ([1]; HaCaT stimulated with IFN-γ): 661.44 pg/mL | TNF-α cytokine concentration ([1]; HaCaT stimulated with IFN-γ): 86.98 pg/mL | IL-12p70 cytokine concentration [1, 5]: 1806.39 pg/mL | IL-22 cytokine concentration [1, 5]: 18682.2 pg/mL | IFN-γ cytokine concentration ([1]; HaCaT stimulated with PBS): 330.74 pg/mL | IL-1 cytokine concentration ([1]; HaCaT stimulated with PBS): 232.45 pg/mL | IL-2 cytokine concentration ([1]; HaCaT stimulated with PBS): 188.4 pg/mL | IL-4 cytokine concentration ([1]; HaCaT stimulated with PBS): 82.9 pg/mL | IL-5 cytokine concentration ([1]; HaCaT stimulated with PBS): 132.61 pg/mL | IL-6 cytokine concentration ([1]; HaCaT stimulated with PBS): 81.84 pg/mL | IL-9 cytokine concentration ([1]; HaCaT stimulated with PBS): 121.47 pg/mL | IL-10 cytokine concentration ([1]; HaCaT stimulated with PBS): 17702 pg/mL
